Measurements as given in PubChem BioAssay AID624417 (National Center for Advancing Translational Sciences (NCATS), 2012).
The campaign covered roughly 410,000 compounds. About 6,400 (1.6%) were called active. Inconclusive means that the source gave no clear call. Such entries were picked first, then a sample of the others. Calls come from the whole dose curve; as a rule, active = well fitted inhibition curve with a large enough effect; inconclusive = small, poorly fitted or top-dose-only effect; inactive = no such curve, though single readings can be large or run the other way. Potencies of inconclusive entries are left out as doubtful fits.

These molecules were tested against Glucagon-like peptide 1 receptor (Homo sapiens) (UniProt P43220) (assay: qHTS of GLP-1 Receptor Inverse Agonists (Inhibition Mode)). Settings: HEK293 GLP-1R CRE-luciferase, luminescence, 24 h, GLP-1R form is constitutively active; activity change, negative = inhibition: at 38.3 µM (top of the series) unless noted.
Outline: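 GLP-1R inverse agonism mode: basal reporter luminescence in engineered HEK293 cells measured after one day of compound exposure at 37 deg C, with a 12 min room-temperature detection step.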
% is set by controls: 0 for no effect and ±100 for the full control effect; potency is the fitted concentration of half-maximal effect; tags give direction and shape of the fitted curve.
Note: nearly all actives have a fitted effect of over 55% in size.

Sequence of UniProt P43220 (P43220 whole entry, looked up): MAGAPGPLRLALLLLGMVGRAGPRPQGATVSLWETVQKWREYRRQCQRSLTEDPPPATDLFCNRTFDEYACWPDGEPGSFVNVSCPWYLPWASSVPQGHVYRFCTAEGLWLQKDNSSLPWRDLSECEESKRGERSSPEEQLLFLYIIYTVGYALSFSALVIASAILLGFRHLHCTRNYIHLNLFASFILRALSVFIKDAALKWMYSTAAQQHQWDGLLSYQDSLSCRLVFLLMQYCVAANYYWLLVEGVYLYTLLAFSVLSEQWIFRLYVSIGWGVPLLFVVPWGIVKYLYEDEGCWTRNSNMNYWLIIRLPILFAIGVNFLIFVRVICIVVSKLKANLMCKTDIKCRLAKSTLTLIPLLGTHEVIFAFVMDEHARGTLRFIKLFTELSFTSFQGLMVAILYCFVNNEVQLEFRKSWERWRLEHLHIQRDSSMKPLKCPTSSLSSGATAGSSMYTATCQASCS

Compound	activity change, negative = inhibition	Potency
COC(=O)C1=CN(Cc2cccs2)C=C(C(=O)OC)C1c1cccc(O)c1	inactive: -6%	
COc1ccc2oc(C(=O)OCC(=O)NC3CCCC3)c(C)c2c1	inactive: -32.8%	
Cc1ccc(-c2ccc(/C=N/NC(N)=S)o2)cc1		inconclusive [inhibitor, full curve, poor fit]
COCCn1c(C)cc(C(=O)COC(=O)c2ccc(Cl)c(S(N)(=O)=O)c2)c1C		inconclusive [inhibitor, single point]
COc1ccc(NC(=O)CCCC2CCCCC2)c(OC)c1		inconclusive [inhibitor, partial curve, poor fit]
CCNc1nc(NCC)nc(SCCOC(=O)Nc2ccccc2)n1		inconclusive [inhibitor, single point]
O=C(Cc1ccc(Cl)cc1)NCC(=O)N1CCN(Cc2ccccc2)CC1		inconclusive [inhibitor, single point]
COC(=O)c1cc(COc2ccc3oc(C)c(C(=O)OC(C)C)c3c2)c(C)o1	inactive: 0.393%	
Cc1ccc(Cl)cc1N(C)C(=O)C1CCCN(c2ncnc3onc(-c4ccc(F)cc4)c23)C1 (configuration not stated)		inconclusive [inhibitor, single point]
O=C(CCc1ccc(S(=O)(=O)NCCc2ccccc2)cc1)Nc1ccc2c(c1)OCCO2		inconclusive [inhibitor, single point]
O=C(/C=C/c1cc(Br)ccc1O)c1ccco1		inconclusive [inhibitor, partial curve, poor fit]
CC(=O)NC12CC3CC(C1)CC(C(=O)OCC(=O)c1cc(C)n(C)c1C)(C3)C2		inconclusive [inhibitor, single point]
CSc1ccc(C(=O)C2CCCN(Cc3cccn3-c3cccnc3)C2)cc1 (configuration not stated)		inconclusive [inhibitor, partial curve, poor fit]
CCc1ccc(NC(=O)N2CCN(c3ccccc3)CC2)cc1		inconclusive [inhibitor, partial curve]
COc1ccc(C(=O)CN2CCN(c3ccc(F)cc3)CC2)cc1	inactive: -16.3%	
O=C(O)c1cccc(-n2cc(-c3cccc(C(F)(F)F)c3)cn2)c1		inconclusive [inhibitor, single point]
Cc1ccc(Cn2c(CCNC(=O)C(C)C)nc3ccccc32)cc1		inconclusive [inhibitor, partial curve]
c1cc2cc(-c3c(-c4ccc5c(c4)OCO5)noc3-c3ccsc3)ccc2[nH]1		inconclusive [inhibitor, partial curve, poor fit]
C=C(C)C(=O)Nc1cccc(C2=NOC3(C2)C[C@@H](C(N)=O)N(C(=O)c2cc([N+](=O)[O-])cc([N+](=O)[O-])c2C)C3)c1 (some centres not stated)	inactive: 17.8%	
CN(CC(=O)Nc1cccc(S(=O)(=O)N2CCCC2)c1)CC(=O)Nc1ccc(F)c(F)c1F		inconclusive [inhibitor, partial curve]
O=C(N/N=C1\CCCc2ccccc21)c1cccc(Br)c1		inconclusive [inhibitor, single point]

Compound	activity change, negative = inhibition	Potency
Cc1ccc(OCc2nc(-c3ccccn3)n[nH]2)cc1		inconclusive [inhibitor, full curve, poor fit]
Cc1ccccc1OCC(=O)Nc1ccc(C)c(S(=O)(=O)N2CCCCCC2)c1		inconclusive [inhibitor, partial curve, poor fit]
Cc1cc(-c2ccc(C)c(S(=O)(=O)NCCCN(Cc3ccccc3)C(C)C)c2)on1		inconclusive [inhibitor, partial curve, poor fit]
Cc1ccc(NC(=S)N(CCN(C)C)Cc2cc3cc(C)cc(C)c3[nH]c2=O)cc1		inconclusive [inhibitor, partial curve]
O=C(CSc1cccc[n+]1[O-])Nc1cc([N+](=O)[O-])ccc1Cl	inactive: -3.3% [at 0.307 µM]	
O=C(NCC(c1ccco1)N1CCCC1)c1cc2ccccc2s1 (configuration not stated)		inconclusive [inhibitor, partial curve, poor fit]
Clc1cccc(-n2cc(-c3ccccc3)c3c(NC4CCCC4)ncnc32)c1	inactive: -0.875%	
CCNC(=O)C1(C)CCCN(C(=O)c2ccc(C(F)(F)F)nc2C)C1 (configuration not stated)	inactive: 16.6%	
CCCNC(=O)C1(C)CCCN(Cc2csc3ccccc23)C1 (configuration not stated)		inconclusive [inhibitor, single point]
CCOc1ccc(S(=O)(=O)NCCc2cn3ccccc3n2)cc1	inactive: 7.24%	
Cc1cc(C(C)(C)C)oc1C(=O)N(CC(=O)NC1CCCC1)c1ccc(F)cc1		inconclusive [inhibitor, partial curve, poor fit]
CC(C)C[C@H]1CNC(=S)N1CC1CCCN1C[C@H](CC(C)C)N1C[C@H](Cc2ccc(O)cc2)N(CC2CCCCCC2)C1=S (some centres not stated)	inactive: -1.26%	
O=C(COc1cccc2ccccc12)Nc1cc(Cl)ccc1C(=O)O		inconclusive [inhibitor, single point]
COc1ccc2c(=O)c(-c3ccccc3C)c(C)oc2c1		inconclusive [inhibitor, single point]
Cc1nnsc1S(=O)(=O)Cc1ccccc1C(F)(F)F		inconclusive [inhibitor, partial curve, poor fit]
NS(=O)(=O)c1ccccc1	inactive: 14.9%	
CCc1c(-c2ccccc2OC)ncn1Cc1cccc(-c2ccccc2)c1		inconclusive [inhibitor, partial curve, poor fit]
N#Cc1c(NC(=O)CSc2nc(-c3ccccc3)cc(C(F)(F)F)n2)sc2c1CCC2	inactive: 4.22%	
Cc1ccc(C)c(S(=O)(=O)N(C)Cc2cccs2)c1		inconclusive [inhibitor, partial curve, poor fit]
CC1Cc2ccccc2N1C(=O)CN1CCc2ccccc2C1 (configuration not stated)		inconclusive [inhibitor, partial curve, poor fit]
CCOC(=O)c1c(N)sc(C(O)(C(F)(F)F)C(F)(F)F)c1-c1ccc(F)cc1		inconclusive [inhibitor, single point]
